Results on 40 sequences are retold here after paper PMC12820563, “FoxP3 forms a head-to-head dimer in vivo and stabilizes its multimerization on adjacent microsatellites”.

The other results are listed elsewhere or left out.

For the assay, the target named is T1, MBP-FoxP1dN (Mus musculus, UniProt P58462 326-579).
T1 sequence: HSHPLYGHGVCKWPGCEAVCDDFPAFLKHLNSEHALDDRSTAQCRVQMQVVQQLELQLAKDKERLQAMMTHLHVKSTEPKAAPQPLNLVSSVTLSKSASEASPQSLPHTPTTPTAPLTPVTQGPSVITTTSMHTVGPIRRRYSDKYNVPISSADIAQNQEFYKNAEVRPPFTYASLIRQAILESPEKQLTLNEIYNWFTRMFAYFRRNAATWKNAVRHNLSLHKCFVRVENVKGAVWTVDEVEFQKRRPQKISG
The experiment in a line: PD-seq (MBP pull-down with sequencing); 20 mM Tris-HCl pH 7.5, 100 mM NaCl, 1.5 mM MgCl2, 0.4 uM protein, 0.1 uM dsDNA library, 30 min, room temperature, amylose pull-down; high values mean tight binding. The note with it: protein: recombinant; tags: His6-MBP; chain copies: 2; dsDNA, one strand shown. A digest of the protocol: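 E. coli-expressed mouse FoxP3 or FoxP1 fragment, N-terminus removed and tagged with His6-MBP, was used at 0.4 µM against 0.1 µM of a Klenow-filled degenerate double-stranded DNA library. After 30 min at room temperature in Tris pH 7.5 buffer with NaCl and MgCl2, complexes were pulled down on amylose resin and washed three times. Binding is pull-down over input reads-per-million enrichment from pooled replicates of the proteinase K-released, PCR-barcoded, Illumina-sequenced DNA.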
Consider “GATGATTGTTCTCCCAGCTGATGAATTGGCTTGTTCGAGTAAACAAATTTTCCTAATCTTTCTGTTCAAGCGCCATCTAC”, for which the binding signal was 0.869 RPM ratio (pull-down/input).
Then “GATGATTGTTCTCCCAGCTGATGAATTAACGACTTCGAGTAAACAAATTTTCCTAATCTTTCTGTTCAAGCGCCATCTAC”, with 0.861 RPM ratio (pull-down/input); and “GATGATTGTTCTCCCAGCTGATGAATTTGGCCCGTCGAGTAAACAAATTTTCCTAATCTTTCTGTTCAAGCGCCATCTAC”, with 0.801 RPM ratio (pull-down/input); and “GATGATTGTTCTCCCAGCTGATGAATTTCTACAGTCGAGTAAACAAATTTTCCTAATCTTTCTGTTCAAGCGCCATCTAC”, with 0.94 RPM ratio (pull-down/input).
As for “GATGATTGTTCTCCCAGCTGATGAATTGGGGACCTCGAGTAAACAAATTTTCCTAATCTTTCTGTTCAAGCGCCATCTAC”, the figure is 0.742 RPM ratio (pull-down/input); as for “GATGATTGTTCTCCCAGCTGATGAATTACGTGTATCGAGTAAACAAATTTTCCTAATCTTTCTGTTCAAGCGCCATCTAC”, 1.3 RPM ratio (pull-down/input); as for “GATGATTGTTCTCCCAGCTGATGAATTCTGTATTTCGAGTAAACAAATTTTCCTAATCTTTCTGTTCAAGCGCCATCTAC”, 1.18 RPM ratio (pull-down/input).
For “GATGATTGTTCTCCCAGCTGATGAATTGCGCTTATCGAGTAAACAAATTTTCCTAATCTTTCTGTTCAAGCGCCATCTAC”, the binding signal was 1.22 RPM ratio (pull-down/input).
As to “GATGATTGTTCTCCCAGCTGATGAATTTTGACCTTCGAGTAAACAAATTTTCCTAATCTTTCTGTTCAAGCGCCATCTAC”, the binding signal is 0.87 RPM ratio (pull-down/input).
“GATGATTGTTCTCCCAGCTGATGAATTGTACGGCTCGAGTAAACAAATTTTCCTAATCTTTCTGTTCAAGCGCCATCTAC”: the binding signal is 0.811 RPM ratio (pull-down/input).
As for “GATGATTGTTCTCCCAGCTGATGAATTCGTAGCTTCGAGTAAACAAATTTTCCTAATCTTTCTGTTCAAGCGCCATCTAC”, the figure is 0.906 RPM ratio (pull-down/input); as for “GATGATTGTTCTCCCAGCTGATGAATTAAGAGACTCGAGTAAACAAATTTTCCTAATCTTTCTGTTCAAGCGCCATCTAC”, 0.798 RPM ratio (pull-down/input); as for “GATGATTGTTCTCCCAGCTGATGAATTCAGTCTATCGAGTAAACAAATTTTCCTAATCTTTCTGTTCAAGCGCCATCTAC”, 0.905 RPM ratio (pull-down/input).
Then “GATGATTGTTCTCCCAGCTGATGAATTCGGCGCCTCGAGTAAACAAATTTTCCTAATCTTTCTGTTCAAGCGCCATCTAC”, with 0.87 RPM ratio (pull-down/input); and “GATGATTGTTCTCCCAGCTGATGAATTAACGGACTCGAGTAAACAAATTTTCCTAATCTTTCTGTTCAAGCGCCATCTAC”, with 0.8 RPM ratio (pull-down/input); and “GATGATTGTTCTCCCAGCTGATGAATTGTGAAAATCGAGTAAACAAATTTTCCTAATCTTTCTGTTCAAGCGCCATCTAC”, with 1.27 RPM ratio (pull-down/input).
As for “GATGATTGTTCTCCCAGCTGATGAATTGCACGCATCGAGTAAACAAATTTTCCTAATCTTTCTGTTCAAGCGCCATCTAC”, the binding signal is 1.37 RPM ratio (pull-down/input).
Consider “GATGATTGTTCTCCCAGCTGATGAATTAATACAGTCGAGTAAACAAATTTTCCTAATCTTTCTGTTCAAGCGCCATCTAC”, for which the binding signal was 0.993 RPM ratio (pull-down/input).
On to “GATGATTGTTCTCCCAGCTGATGAATTTACAGATTCGAGTAAACAAATTTTCCTAATCTTTCTGTTCAAGCGCCATCTAC”, for which the binding signal was 1.22 RPM ratio (pull-down/input).
Then “GATGATTGTTCTCCCAGCTGATGAATTCCTCAGTTCGAGTAAACAAATTTTCCTAATCTTTCTGTTCAAGCGCCATCTAC”, with 0.81 RPM ratio (pull-down/input); and “GATGATTGTTCTCCCAGCTGATGAATTGCTAGCCTCGAGTAAACAAATTTTCCTAATCTTTCTGTTCAAGCGCCATCTAC”, with 1 RPM ratio (pull-down/input).
As for “GATGATTGTTCTCCCAGCTGATGAATTACGCTTATCGAGTAAACAAATTTTCCTAATCTTTCTGTTCAAGCGCCATCTAC”, the binding signal is 1.16 RPM ratio (pull-down/input).
As for “GATGATTGTTCTCCCAGCTGATGAATTCCATTGGTCGAGTAAACAAATTTTCCTAATCTTTCTGTTCAAGCGCCATCTAC”, the figure is 0.762 RPM ratio (pull-down/input).
With “GATGATTGTTCTCCCAGCTGATGAATTGACCAAGTCGAGTAAACAAATTTTCCTAATCTTTCTGTTCAAGCGCCATCTAC”, the binding signal was 0.87 RPM ratio (pull-down/input).
On to “GATGATTGTTCTCCCAGCTGATGAATTCATTTATTCGAGTAAACAAATTTTCCTAATCTTTCTGTTCAAGCGCCATCTAC”, for which the binding signal was 1.01 RPM ratio (pull-down/input).
“GATGATTGTTCTCCCAGCTGATGAATTTGCGGTGTCGAGTAAACAAATTTTCCTAATCTTTCTGTTCAAGCGCCATCTAC”: the binding signal is 0.989 RPM ratio (pull-down/input).
With “GATGATTGTTCTCCCAGCTGATGAATTCTATCCGTCGAGTAAACAAATTTTCCTAATCTTTCTGTTCAAGCGCCATCTAC”, the binding signal is 0.9 RPM ratio (pull-down/input).
As to “GATGATTGTTCTCCCAGCTGATGAATTATCCGTCTCGAGTAAACAAATTTTCCTAATCTTTCTGTTCAAGCGCCATCTAC”, the binding signal is 0.857 RPM ratio (pull-down/input).
Regarding “GATGATTGTTCTCCCAGCTGATGAATTAAAGGCCTCGAGTAAACAAATTTTCCTAATCTTTCTGTTCAAGCGCCATCTAC”, the binding signal was 0.877 RPM ratio (pull-down/input).
In the case of “GATGATTGTTCTCCCAGCTGATGAATTCAGCATCTCGAGTAAACAAATTTTCCTAATCTTTCTGTTCAAGCGCCATCTAC”, the binding signal is 1.08 RPM ratio (pull-down/input).
Then “GATGATTGTTCTCCCAGCTGATGAATTCGAAGGATCGAGTAAACAAATTTTCCTAATCTTTCTGTTCAAGCGCCATCTAC”, with 0.845 RPM ratio (pull-down/input).
As to “GATGATTGTTCTCCCAGCTGATGAATTCATACCATCGAGTAAACAAATTTTCCTAATCTTTCTGTTCAAGCGCCATCTAC”, the binding signal was 0.999 RPM ratio (pull-down/input).
As for “GATGATTGTTCTCCCAGCTGATGAATTCGCTACGTCGAGTAAACAAATTTTCCTAATCTTTCTGTTCAAGCGCCATCTAC”, the figure is 0.968 RPM ratio (pull-down/input); as for “GATGATTGTTCTCCCAGCTGATGAATTTACAGTGTCGAGTAAACAAATTTTCCTAATCTTTCTGTTCAAGCGCCATCTAC”, 1.24 RPM ratio (pull-down/input).
For the sequence “GATGATTGTTCTCCCAGCTGATGAATTTTAAGTTTCGAGTAAACAAATTTTCCTAATCTTTCTGTTCAAGCGCCATCTAC”, the binding signal is 0.926 RPM ratio (pull-down/input).
For “GATGATTGTTCTCCCAGCTGATGAATTTGAAGCTTCGAGTAAACAAATTTTCCTAATCTTTCTGTTCAAGCGCCATCTAC”, the binding signal is 0.899 RPM ratio (pull-down/input).
As for “GATGATTGTTCTCCCAGCTGATGAATTATGTATCTCGAGTAAACAAATTTTCCTAATCTTTCTGTTCAAGCGCCATCTAC”, the binding signal is 1.45 RPM ratio (pull-down/input).
For the sequence “GATGATTGTTCTCCCAGCTGATGAATTTGTGATGTCGAGTAAACAAATTTTCCTAATCTTTCTGTTCAAGCGCCATCTAC”, the binding signal was 1.47 RPM ratio (pull-down/input).
As to “GATGATTGTTCTCCCAGCTGATGAATTACCCGCTTCGAGTAAACAAATTTTCCTAATCTTTCTGTTCAAGCGCCATCTAC”, the binding signal was 0.968 RPM ratio (pull-down/input).
As for “GATGATTGTTCTCCCAGCTGATGAATTGAACCGCTCGAGTAAACAAATTTTCCTAATCTTTCTGTTCAAGCGCCATCTAC”, the binding signal is 0.819 RPM ratio (pull-down/input).
